# In publication PMC4336329 (PLoS ONE, 2015):
# Out of some 310,000 compounds screened, about 2,200 (0.71%) showed an effect of 50% or more. Effects have a minus sign here. The list shows a part of the results.
# Biological target: human ether-à-go-go-related gene (hERG) potassium channel (human, UniProt Q12809)
# Assay: primary screen, population patch clamp on CHO cells stably expressing hERG
# Chain of human ether-à-go-go-related gene (hERG) potassium channel (Q12809 whole entry, looked up): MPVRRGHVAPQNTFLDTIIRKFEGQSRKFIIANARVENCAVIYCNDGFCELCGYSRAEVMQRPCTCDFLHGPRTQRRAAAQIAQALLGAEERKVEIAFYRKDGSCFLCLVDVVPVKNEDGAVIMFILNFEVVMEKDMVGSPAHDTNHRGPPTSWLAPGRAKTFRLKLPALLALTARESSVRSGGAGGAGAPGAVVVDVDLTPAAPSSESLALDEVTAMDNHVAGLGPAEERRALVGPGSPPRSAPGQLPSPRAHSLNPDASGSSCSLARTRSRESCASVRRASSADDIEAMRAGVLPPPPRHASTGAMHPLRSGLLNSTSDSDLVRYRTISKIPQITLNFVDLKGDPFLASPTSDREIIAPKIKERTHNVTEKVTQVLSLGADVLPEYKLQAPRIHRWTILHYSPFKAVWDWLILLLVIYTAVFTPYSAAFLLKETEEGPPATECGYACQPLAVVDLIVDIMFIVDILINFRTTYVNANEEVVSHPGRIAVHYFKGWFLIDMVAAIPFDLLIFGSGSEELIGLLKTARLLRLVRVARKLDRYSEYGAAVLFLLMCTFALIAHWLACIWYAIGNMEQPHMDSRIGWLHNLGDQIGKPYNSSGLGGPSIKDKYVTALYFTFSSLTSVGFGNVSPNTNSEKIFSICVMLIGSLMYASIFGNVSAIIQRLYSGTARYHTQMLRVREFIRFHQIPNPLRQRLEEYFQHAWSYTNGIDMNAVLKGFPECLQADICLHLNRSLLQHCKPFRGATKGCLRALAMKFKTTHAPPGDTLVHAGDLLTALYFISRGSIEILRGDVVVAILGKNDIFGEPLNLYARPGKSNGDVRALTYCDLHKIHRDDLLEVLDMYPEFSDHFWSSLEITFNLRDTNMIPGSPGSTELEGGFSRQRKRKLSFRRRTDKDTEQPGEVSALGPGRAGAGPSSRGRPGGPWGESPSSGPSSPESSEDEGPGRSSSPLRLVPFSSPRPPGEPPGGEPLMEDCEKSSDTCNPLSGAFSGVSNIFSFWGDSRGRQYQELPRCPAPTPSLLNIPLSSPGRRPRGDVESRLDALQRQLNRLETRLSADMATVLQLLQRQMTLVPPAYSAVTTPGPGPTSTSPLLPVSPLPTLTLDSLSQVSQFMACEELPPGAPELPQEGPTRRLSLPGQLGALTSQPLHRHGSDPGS
row,SMILES,"hERG current change (%, negative = inhibition) at 1uM [%]"
1,Cc1ccc(N2C(=O)C(Cl)=C(N3CCOCC3)C2=O)cc1Cl,-10.9
2,COc1ccc2c(c1)CCc1c-2n[nH]c1C(=O)O,12.4
3,O=C(c1ccccc1)N1CCN(C(=O)C2CC2)CC1,16.7
4,Cc1cc(C(=O)CCC(=O)NNC(=O)c2ccccc2O)c(C)s1,8.28
5,COC(=O)/C=C/c1ccccc1CN1[C@@H](CC(=O)OC)c2ccccc2S1(=O)=O,9.09
6,COc1ccc(CC(=O)NCc2ccccc2)cc1S(=O)(=O)N1CCOCC1,9.22
7,CCN(CC(=O)Nc1ccccc1C(F)(F)F)C(=O)c1oc2c(Cl)cccc2c1C,4.84
8,O=C1Nc2ccc(Br)cc2C12NNc1ccccc1O2 (centres unmarked),10.8
9,CCC(=O)N1CCc2cc(S(=O)(=O)N(CC)c3cccc(C)c3)ccc21,-7.47
10,O=C(CSc1cc(Cl)ccc1Cl)NC1CC1,4.67
11,CC1CCN(c2ccc(-c3cccc(NC(=O)C(F)(F)F)c3)nn2)CC1,0.79
12,CCN1CCN(C(=O)c2cc3c(-c4ccc(Cl)cc4)nn(C)c3s2)CC1,-15.7
13,CCOC(=O)N1CCN(C(=O)CCN2C(=O)COc3ccc(C)cc32)CC1,2.66
14,Cc1cccc(C(=O)N=c2c(C#N)cc3c(=O)n4cccc(C)c4nc3n2Cc2ccco2)c1,-23.4
15,Cc1ccc(-c2nc3cc(NC(=O)C(C)C)ccc3o2)cc1,6.97
16,CC1CCCC(NC(=O)CSc2ncccc2C(=O)O)C1C (centres unmarked),8.49
17,CN(CCOC(=O)c1ccco1)Cc1ccccc1,4.43
18,COC(=O)CCN(C(=O)c1ccc(N2CCCCC2)c([N+](=O)[O-])c1)c1ccccn1,11.8
19,COc1cc2ccccc2cc1C(=O)Nc1ccc(C)cc1,11.9

row,SMILES,"hERG current change (%, negative = inhibition) at 1uM [%]"
1,COc1cc(C(=O)Oc2ccccc2/C=N/NC(=O)c2ccc(Cl)cc2)cc(OC)c1OC,12
2,C=CCNC(=O)C1CC1(c1ccccc1)c1ccccc1 (centres unmarked),3.83
3,COC(=O)c1c(C(=O)OC)c2cc(C(=O)c3ccccc3)ccn2c1Cl,2.87
4,Brc1ccccc1OCCCCN1CCCCC1,-1.28
5,COc1cc(Cl)ccc1OCc1cc(C(=O)N2C[C@H]3CC[C@H]2C3)no1,15.3
6,CCN(CC)S(=O)(=O)c1ccc(N2CCCC2)c(C(=O)OCC(=O)Nc2cc(C)on2)c1,7.53
7,CCOC(=O)c1sc(NC(=O)C(OC(C)=O)c2ccccc2)nc1C (centres unmarked),4.99
8,CCN1CCN(CCCN(Cc2ccco2)C(=S)Nc2ccc(Cl)c(C)c2)CC1,-21
9,CC(C)C(NC(=O)c1c(F)cccc1F)C(=O)OCN1C(=O)c2ccccc2C1=O (centres unmarked),15.6
10,COc1ccc(-n2c(=S)[nH]c3cc(C(=O)NCc4ccco4)ccc3c2=O)cc1OC,6.16
11,COC(=O)c1cccc(N2C(=O)C(Cl)=C(N3CCOCC3)C2=O)c1,-1.72
12,COc1cc2nc(C3CC3)n(NC(=O)c3ccc(F)cc3)c(=O)c2cc1OC,7.89
13,Cc1ccc(CNC(=O)CSc2nc(=O)n3cccc(C)c3n2)cc1,2
14,CC1(C)C(=O)Nc2ccccc2N1C(=O)Cn1ncc(Cl)c(Cl)c1=O,14.9
15,CSc1ccc(/C=C(/NC(=O)c2ccccc2)C(=O)N2CCN(C)CC2)cc1,-48.7
16,Cc1cccnc1NC(=O)c1ccc([N+](=O)[O-])o1,3.55
17,Cc1nnc(SC(C(=O)Nc2cc(Cl)cc(Cl)c2)c2ccccc2)[nH]c1=O (centres unmarked),11.1
18,CN1C(=O)C2(c3ccccc31)N(C)CC(c1ccccc1)C21SC(=S)N(Cc2ccco2)C1=O (centres unmarked),8.25
19,O=C(NNC(=S)Nc1ccccc1Cl)c1ccccc1Br,19.2

row,SMILES,"hERG current change (%, negative = inhibition) at 1uM [%]"
1,ONC(=Nc1ccc(Cl)cc1)c1ccc(Cl)cc1,0.0458
2,O=[N+]([O-])c1cccc(NC(=S)N2CCOCC2)c1,14.1
3,Cc1oc2c(C)c(O)ccc2c(=O)c1N1C(=O)c2ccccc2C1=O,3.65
4,CCN(C(=O)Cn1nc(C)c([N+](=O)[O-])c1C)C1CCS(=O)(=O)C1 (centres unmarked),14.6
5,CCOC(=O)CSc1nnc(CNC(=O)c2ccc(OC)cc2OC)n1C,-6.27
6,Cc1ccc(-c2cc(-c3c(C)nn(C)c(=O)c3N)[nH]n2)cc1,13.8
7,O=C(NCc1ccc(Cl)c(Cl)c1)C1CCCC1,0.519
8,CN(CC(=O)Nc1c(Cl)cccc1Cl)C(=O)c1ccccc1SCC(=O)N1CCCC1,9.02
9,COC(=O)c1sc(NC(=O)/C=C/c2ccc(C)o2)nc1C,19.6
10,COc1cc(/C=N/NC(=O)c2ccc3c(c2)OCCO3)cc(Br)c1O,0.0005
11,CCOC(=O)N1CCN(C(=O)c2ccccc2N(Cc2ccccc2)S(=O)(=O)c2ccc(OC)cc2)CC1,-0.0391
12,O=C(CC1SC(=O)N(Cc2cccc3ccccc23)C1=O)Nc1nccs1 (centres unmarked),8.62
13,Cc1ccc(S(=O)(=O)Cn2nnnc2C(C(C)C)N2CCN(c3nc4ccccc4s3)CC2)cc1 (centres unmarked),16.3
14,Cc1ccc(CNC(=O)C2CCCN(C(=O)N(C)C)C2)cc1 (centres unmarked),1.95
15,COc1ccc(C(=O)NC2CC2)cc1OC1CCN(Cc2ccc(F)cc2Cl)CC1,-62
16,Cc1nc2ccc(Nc3ccncc3)cc2s1,-0.0672
17,CN1CCN(C2=C(Cl)C(=O)C(c3cnc(N4CCCCC4)s3)=C(Cl)C2=O)CC1,17.3
18,O=C(NCCC(=O)N1CCN(c2ncccn2)CC1)c1ccccc1Cl,10.3
